Experimental data: PMC6919601, “Identification of Plasmodium dipeptidyl aminopeptidase allosteric inhibitors by high throughput screening” (PLoS ONE, 2019)
Out of some 110,000 compounds screened, about 230 (0.21%) showed an effect of 50% or more. Some of the results follow.

biological target: DPAP1 (Plasmodium falciparum, UniProt Q8IIJ9); test: primary screen, percent inhibition; read by cleavage of a fluorogenic dipeptide substrate; higher = more effect of the substance; design: species or system P. falciparum D10 trophozoite lysates; single well
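Further: 30 min substrate incubation versus DMSO and 10 µM JCP410 controls.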

Chain of DPAP1 (Q8IIJ9 whole entry, looked up): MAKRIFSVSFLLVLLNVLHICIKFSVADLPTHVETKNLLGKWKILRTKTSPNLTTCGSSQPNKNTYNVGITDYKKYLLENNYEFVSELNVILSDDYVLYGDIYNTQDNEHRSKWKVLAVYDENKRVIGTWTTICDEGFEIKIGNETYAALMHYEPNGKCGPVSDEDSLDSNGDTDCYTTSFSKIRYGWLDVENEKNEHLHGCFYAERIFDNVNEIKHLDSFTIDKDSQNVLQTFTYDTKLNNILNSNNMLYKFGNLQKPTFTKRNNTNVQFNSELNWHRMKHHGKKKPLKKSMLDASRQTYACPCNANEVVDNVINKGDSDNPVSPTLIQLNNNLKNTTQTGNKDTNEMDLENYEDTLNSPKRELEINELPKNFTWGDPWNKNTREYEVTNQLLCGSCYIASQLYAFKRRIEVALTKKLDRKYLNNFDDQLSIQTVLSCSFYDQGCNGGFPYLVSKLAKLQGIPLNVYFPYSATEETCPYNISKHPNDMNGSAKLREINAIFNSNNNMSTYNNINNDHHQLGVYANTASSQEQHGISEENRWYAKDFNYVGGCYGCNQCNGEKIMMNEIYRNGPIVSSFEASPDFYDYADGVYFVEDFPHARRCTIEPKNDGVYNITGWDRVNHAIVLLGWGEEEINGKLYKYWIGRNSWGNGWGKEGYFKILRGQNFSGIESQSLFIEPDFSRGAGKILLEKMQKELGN

Row | Compound | % Inhibition @ 10 uM [%]
1 | c1cc2c(cc1-c1cc(C3CCNCC3)n[nH]1)OCO2 | -2.32
2 | CC1(C)CC(NC(=O)C(=O)NCCc2ccccc2)CC(C)(C)N1 | -1.33
3 | COc1cccc(C2NC(CCSC)(C(=O)O)C3C(=O)N(C(C)C)C(=O)C23)c1O (stereo not drawn) | 2.7
4 | O=C(N/C(=C\c1ccc(Br)cc1)C(=O)N(CCO)CCO)c1ccco1 | 7.1
5 | c1ccc(Cc2c[nH]c3ccccc23)cc1 | 0.736
6 | Cc1ccc(CN2C(=O)CCC2C(=O)NCc2ccc(F)cc2)cc1 (stereo not drawn) | -0.0542
7 | Fc1ccc(F)c(CN2CCN(C/C=C/c3ccccc3)CC2)c1 | -2.21
8 | CC(C)(C)c1ccc(S(=O)(=O)CCc2ccncc2)cc1 | -6.82
9 | NC(=O)NC(c1ccccc1)c1ccccc1Cl (stereo not drawn) | 0.177
10 | CCC1CCc2c(sc(NC(=O)COc3ccc4ccccc4c3)c2C(N)=O)C1 (stereo not drawn) | -2.68
11 | CCOc1cc(C2c3c(oc4ccccc4c3=O)C(=O)N2c2nc(C)c(C(C)=O)s2)ccc1O (stereo not drawn) | -0.828
12 | CCCC(=O)N1CCS(=O)CC1 | 4.35
13 | OCCN1CCN(Cc2ccc(Br)o2)CC1 | -0.856
14 | COc1ccc(NC(=O)CN(Cc2ccccc2)S(=O)(=O)c2ccc(F)cc2)cc1 | 3.56
15 | Clc1cccc(OCCCCn2ccnc2)c1 | 1.74
16 | CCOc1cc(CN2CCN(c3cccc(C(F)(F)F)c3)CC2)ccc1OC | 4.81
17 | CC1=C(c2ccc(C)c(C)c2)S(=O)(=O)N=C1N1CCN(C(=O)c2ccco2)CC1 | -1.08
18 | CCc1nn(CC(=O)NCc2ccccc2C)c(=O)c2cc3sc(C)cc3n12 | 9.33
19 | CCOC(=O)C1=C(C)NC(=O)NC1c1ccc(OC(C)C)c(OC)c1 (stereo not drawn) | -1.11
20 | Cc1cc(-c2[nH]nc3c2C(c2cccs2)C(C#N)=C(N)O3)c(C)s1 (stereo not drawn) | 0.777
21 | COc1ccc(CN2CCN(C)CC2)c(OC)c1C | -2.03
22 | CCCCC1(c2ccccc2)C(=O)NC(=O)NC1=O | 0.219
23 | Cc1ccc(CNC(=O)CN(c2ccc(C)cc2)S(=O)(=O)c2ccccc2)cc1 | -5.92
24 | CCOC(=O)c1sc2ncnc(N)c2c1C | -1.2
25 | O=C1ON=C(c2ccccc2)/C1=C/c1ccc(-c2ccc(C(=O)O)cc2)o1 | -2.98

Row | Compound | % Inhibition @ 10 uM [%]
26 | CCOC(=O)C1=C(CSc2nc3ccccc3nc2C)OC(N)=C(C#N)C1c1ccccc1F (stereo not drawn) | -1.72
27 | O=C(Nc1nn[nH]n1)C12CC3CC(CC(C3)C1)C2 | -6.08
28 | Nc1c(-c2ccccc2)nc2ccccn12 | 0.231
29 | COc1ccc(/N=C2\S/C(=C\c3c(C)n(CC(=O)O)c4ccccc34)C(=O)N2C)cc1 | 7.25
30 | COc1ccc(CN2CCN(C(=O)CC(C)C)CC2)c(OC)c1 | -7.14
31 | C=Cc1ccc(Cn2c(C(=O)O)c(CNC3CCCCCCC3)c3ccccc32)cc1 | 2.81
32 | Cc1cc(NS(=O)(=O)c2ccc(NC(=O)COc3ccc(C)c(C)c3)cc2)nc(C)n1 | 3.64
33 | O=C(NC(Cc1ccccc1)C(=O)O)c1ccccc1[N+](=O)[O-] (stereo not drawn) | -3.61
34 | Cc1ccc(NC(=O)c2cc(F)c(Cl)nc2Cl)c(C)c1 | 1.89
35 | O=C(Nc1ccccn1)c1cc(S(=O)(=O)N2CCCCC2)ccc1Br | -9.81
36 | CC(=O)c1c(-c2ccccc2)nn(-c2nc3ccccc3s2)c1O | 0.709
37 | CC1CCN(c2c(NCC3CCC(C(=O)NCc4ccc5c(c4)OCO5)CC3)c(=O)c2=O)CC1 (stereo not drawn) | -3.96
38 | N=C(Cc1ccc(Cl)cc1Cl)NOC(=O)c1cccs1 | 2.17
39 | O=C(NC1=NN(c2c(Cl)cc(Cl)cc2Cl)C(=O)C1)c1cccc(N2C(=O)CCC2=O)c1 | -1.65
40 | COc1ccc(/C(O)=C/C=N/c2ccc3c(c2)OCO3)cc1OC | -0.864
41 | COC(=O)c1c(C)[nH]c(C(=O)CSc2nnc3cc(C)c4ccccc4n23)c1C | 16.6
42 | O=C(Nc1nncs1)c1cccc(S(=O)(=O)N2CCOCC2)c1 | 3.04
43 | O=C(CCCn1ncn2c(cc3occc32)c1=O)NCCCc1ccccc1 | -0.281
44 | Cc1cc(C)c(OCC(O)CN2CCCC2)c(C)c1 (stereo not drawn) | 3.8
45 | CCOC(=O)N1CCN(Cc2nc3c(c(=O)n(C)c(=O)n3C)n2CC)CC1 | -0.499
46 | Cc1ccc(F)c(NC(=O)Nc2ccccc2)c1 | -0.414
47 | COc1ccc(N2CCN(C(=O)c3c(C)nn(-c4ccccc4)c3C)CC2)cc1 | -2.46
48 | O=C(CSc1nnc2ccc3ccccc3n12)Nc1nsc(-c2ccccc2)n1 | 2.25
49 | COCCCNC(=O)c1cnn(-c2ccc(C)c(C)c2)c1C1CCN(C(=O)OC(C)(C)C)CC1 | -5.97
50 | CC(C)(C)c1ccc(S(=O)(=O)N2CCCCC2C(=O)NCc2ccccn2)cc1 (stereo not drawn) | -0.972

Row | Compound | % Inhibition @ 10 uM [%]
51 | Cn1c(NCc2ccco2)nc2c1c(=O)n(Cc1cccc(Br)c1)c(=O)n2C | -6.98
52 | CC(C)CC(NC(=O)c1ccc(C23CC4CC(CC(C4)C2)C3)cc1)C(=O)NCc1ccccn1 (stereo not drawn) | -1.73
53 | CCOC(=O)N1CCC(NCc2cccc(Br)c2)CC1 | 0.217
54 | Cc1c(/C=C2\SC(=S)NC2=O)c(=O)n(-c2ccccc2)n1C | -3.93
55 | CC(C)OCCCNC(=O)/C(C#N)=C/c1c(Oc2ccc(Cl)cc2)nc2ccccn2c1=O | 1.19
56 | COc1ccc(C(=O)NC(C)Cc2c[nH]c3ccccc23)cc1 (stereo not drawn) | -3.58
57 | Nc1cccc(Oc2ccc(C(c3ccc(Oc4cccc(N)c4)cc3)(C(F)(F)F)C(F)(F)F)cc2)c1 | 2.7
58 | Cc1ccccc1NC(=O)C(Cc1c[nH]c2ccccc12)NC(=O)OC(C)(C)C (stereo not drawn) | 2.87
59 | C/N=C1\S/C(=C\c2ccccc2OCc2ccc(C(=O)O)cc2)C(=O)N1C | 1.17
60 | CC(C)CN(CC(C)C)C(=O)C1CCN(S(=O)(=O)c2cccc3nsnc23)CC1 | 1.9
61 | CC(NC(=O)c1ccccc1NC(=O)c1ccc(N(C)S(C)(=O)=O)cc1)c1ccccc1 (stereo not drawn) | 0.245
62 | Cc1ccc(OCC(=O)Nc2ccccc2C#N)c(Br)c1 | -0.992
63 | CN(CCCNC(=O)Cn1ncc2c3ccccc3n(C)c2c1=O)C1CCCCC1 | 2.99
64 | COc1ccc(C(=O)Nc2cccc(Cl)c2Cl)cc1OC | -4.33
65 | COc1ccc(-c2cc(C(F)F)n3ncc(C(=O)N4CCCC(C)C4)c3n2)cc1 (stereo not drawn) | -0.958
66 | CCOc1ccc(NC2=NC(=O)CC(C(=O)Nc3ccc(C)cc3)N2)cc1 (stereo not drawn) | 0.145
67 | COc1ccc(C(=O)N2CCCC(c3ccccc3)C2)cc1 (stereo not drawn) | -3.4
68 | COc1ccc(C(=O)n2nc(C)c(Br)c2C)cc1OC | 4.32
69 | Cc1cccc(C(=O)NC(=O)Nc2cc(C)on2)c1 | -4.49
70 | COc1ccccc1-c1cc(-c2ccccc2)nc2sc(C(=O)c3ccc(-c4ccccc4)cc3)c(N)c12 | 1.42
71 | Fc1ccc(F)c(CN2CCOCC2)c1 | 2.91
72 | Cc1cccn2c(=O)c3cc(C(=O)NCCN4CCOCC4)c(=N)n(CCc4ccccc4)c3nc12 | 6.7
73 | COc1cc2nc(S)n3nc(COc4ccccc4Br)nc3c2cc1OC | -2.29
74 | COCc1[nH]nc2c1C(c1ccccc1C)C(C#N)=C(N)O2 (stereo not drawn) | 7.17
75 | CN1CCN(C(=O)CCn2c(=O)c3cccn3c3cccnc32)CC1 | 6.91

Row | Compound | % Inhibition @ 10 uM [%]
76 | Cc1nnc(N2CCC(C(=O)NCCc3c[nH]c4ccccc34)CC2)c2nn(-c3ccccc3)c(C)c12 | 1.45
77 | CCOc1ccccc1C(=O)Nc1ccc(C)cc1Br | 1.15
78 | COc1cccc(CNC23CC4CC(CC(C4)C2)C3)c1OC | -3.32
79 | CN(C)/C=N/c1c(Br)cc(Br)c2nonc12 | -2.03
80 | COCCNC(=O)c1cc2nc(-c3cccs3)cc(C(F)(F)F)n2n1 | 14.3
81 | CC(C)C[C@H](NC(=O)N1CCN(c2ncccn2)CC1)C(=O)NCC#N | -6.98
82 | CCOC(=O)N1CCC(NC(=O)c2ccc3c(c2)ncn3C2CCCC2)CC1 | -4.97
83 | Cc1ccc(-c2csc(NC(=O)c3ccc(C)o3)n2)cc1 | 1.27
84 | Cn1c(=O)c(S(=O)c2cc(Cl)c(Cl)cc2Cl)c(O)c2ccccc21 (stereo not drawn) | 6.29
85 | CCC(=O)Nc1c(-c2ccccc2)nc2ccc(C)cn12 | -5.08
86 | CC(=O)NC(C)c1ccc(Br)cc1 (stereo not drawn) | 3.61
87 | CN1CCN(c2ccc(NC(=O)C3CC=CCC3C(=O)O)cc2)CC1 (stereo not drawn) | 3.58
88 | COC(=O)Nc1ccc(S(=O)(=O)N(C)C)cc1 | -2.35
89 | O=C(c1ccncc1)N(C1CCCCC1)C1CCCCC1 | 7.82
90 | Cc1cc(Cl)ccc1NS(=O)(=O)c1ccc(Cl)cc1 | 3.83
91 | CC(C)CNC(=O)Cn1cnc2c(nc3n2CCCCC3)c1=O | -0.495
92 | CCO/N=C(\C(=N/OCC)c1ccccc1)c1ccccc1 | 5.94
93 | O=C(c1ccc(Cl)cc1)N1CCc2c([nH]c3ccccc23)C1 | -0.28
94 | COc1ccc(OC)c(S(=O)(=O)NC2CCN(Cc3ccccc3)CC2)c1 | 2.01
95 | CC1CCCN(c2nc3c(-c4ccccc4)nnn3c3ccccc23)C1 (stereo not drawn) | -6.52
96 | Cc1cc(C)c(S(=O)(=O)N(C)CC(=O)NC2CC2)c(C)c1 | -0.519
97 | Nc1ccc2oc(-c3cccc4c(Br)cccc34)nc2c1 | 2.92
98 | Cc1cc(N)nn1Cc1ccc(F)cc1 | -6.65
99 | CCCN1CCN(C(=O)CSc2cc(C)nc3c(-c4ccccc4OC)c(C)nn23)CC1 | 0.0198
